From the supplement of paper PMC12067093, “Discovery and optimisation of a covalent ligand for TRIM25 and its application to targeted protein ubiquitination” (Chemical Science, 2025)
Of roughly 21,000 targets only a part is listed; those with the largest changes were picked by preference.

Compound: CC1Cc2ccccc2N1C(=O)C1CCCN(C1)C(=O)CCl (mixture of isomers) [TRIM25 ligand 11 (diastereomer mixture)]
Test: probe-labelled cysteine peptide fold change vs DMSO (competition) (log2 fold change); higher = less target engagement (more negative = stronger competition)
Details: THP-1, incubation time: 4 h
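Note: competitive chemoproteomic profiling in live THP-1 cells with an iodoacetamide desthiobiotin (IA-DTB) probe, comparing probe-labelled peptide intensities in compound-treated cells against DMSO-treated controls.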

UniProt P49848, sequence (P49848 whole entry, looked up): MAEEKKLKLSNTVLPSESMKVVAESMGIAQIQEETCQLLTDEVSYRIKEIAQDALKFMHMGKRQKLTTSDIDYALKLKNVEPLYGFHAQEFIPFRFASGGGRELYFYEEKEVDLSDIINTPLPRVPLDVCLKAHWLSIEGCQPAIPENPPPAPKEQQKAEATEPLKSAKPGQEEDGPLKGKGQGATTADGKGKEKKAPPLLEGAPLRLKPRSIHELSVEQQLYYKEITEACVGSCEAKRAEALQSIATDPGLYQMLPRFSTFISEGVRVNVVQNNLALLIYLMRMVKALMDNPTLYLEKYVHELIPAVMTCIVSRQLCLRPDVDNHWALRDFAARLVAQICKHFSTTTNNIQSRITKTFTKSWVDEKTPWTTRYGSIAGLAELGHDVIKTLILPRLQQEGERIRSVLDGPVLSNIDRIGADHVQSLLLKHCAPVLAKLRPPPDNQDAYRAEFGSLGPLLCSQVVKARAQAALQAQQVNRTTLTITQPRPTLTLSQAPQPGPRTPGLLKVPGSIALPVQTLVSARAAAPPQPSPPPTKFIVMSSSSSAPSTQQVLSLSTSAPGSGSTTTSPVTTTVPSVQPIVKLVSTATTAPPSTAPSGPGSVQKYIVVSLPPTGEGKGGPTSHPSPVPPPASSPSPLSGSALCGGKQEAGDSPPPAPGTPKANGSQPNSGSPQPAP
UniProt P37802, sequence (P37802 whole entry, looked up): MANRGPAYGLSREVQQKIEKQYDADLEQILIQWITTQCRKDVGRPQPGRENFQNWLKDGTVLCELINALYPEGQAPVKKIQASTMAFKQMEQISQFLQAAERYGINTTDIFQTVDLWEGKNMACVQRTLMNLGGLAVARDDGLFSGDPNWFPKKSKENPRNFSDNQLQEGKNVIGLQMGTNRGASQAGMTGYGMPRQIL
UniProt Q68CZ2, sequence (Q68CZ2 whole entry, looked up): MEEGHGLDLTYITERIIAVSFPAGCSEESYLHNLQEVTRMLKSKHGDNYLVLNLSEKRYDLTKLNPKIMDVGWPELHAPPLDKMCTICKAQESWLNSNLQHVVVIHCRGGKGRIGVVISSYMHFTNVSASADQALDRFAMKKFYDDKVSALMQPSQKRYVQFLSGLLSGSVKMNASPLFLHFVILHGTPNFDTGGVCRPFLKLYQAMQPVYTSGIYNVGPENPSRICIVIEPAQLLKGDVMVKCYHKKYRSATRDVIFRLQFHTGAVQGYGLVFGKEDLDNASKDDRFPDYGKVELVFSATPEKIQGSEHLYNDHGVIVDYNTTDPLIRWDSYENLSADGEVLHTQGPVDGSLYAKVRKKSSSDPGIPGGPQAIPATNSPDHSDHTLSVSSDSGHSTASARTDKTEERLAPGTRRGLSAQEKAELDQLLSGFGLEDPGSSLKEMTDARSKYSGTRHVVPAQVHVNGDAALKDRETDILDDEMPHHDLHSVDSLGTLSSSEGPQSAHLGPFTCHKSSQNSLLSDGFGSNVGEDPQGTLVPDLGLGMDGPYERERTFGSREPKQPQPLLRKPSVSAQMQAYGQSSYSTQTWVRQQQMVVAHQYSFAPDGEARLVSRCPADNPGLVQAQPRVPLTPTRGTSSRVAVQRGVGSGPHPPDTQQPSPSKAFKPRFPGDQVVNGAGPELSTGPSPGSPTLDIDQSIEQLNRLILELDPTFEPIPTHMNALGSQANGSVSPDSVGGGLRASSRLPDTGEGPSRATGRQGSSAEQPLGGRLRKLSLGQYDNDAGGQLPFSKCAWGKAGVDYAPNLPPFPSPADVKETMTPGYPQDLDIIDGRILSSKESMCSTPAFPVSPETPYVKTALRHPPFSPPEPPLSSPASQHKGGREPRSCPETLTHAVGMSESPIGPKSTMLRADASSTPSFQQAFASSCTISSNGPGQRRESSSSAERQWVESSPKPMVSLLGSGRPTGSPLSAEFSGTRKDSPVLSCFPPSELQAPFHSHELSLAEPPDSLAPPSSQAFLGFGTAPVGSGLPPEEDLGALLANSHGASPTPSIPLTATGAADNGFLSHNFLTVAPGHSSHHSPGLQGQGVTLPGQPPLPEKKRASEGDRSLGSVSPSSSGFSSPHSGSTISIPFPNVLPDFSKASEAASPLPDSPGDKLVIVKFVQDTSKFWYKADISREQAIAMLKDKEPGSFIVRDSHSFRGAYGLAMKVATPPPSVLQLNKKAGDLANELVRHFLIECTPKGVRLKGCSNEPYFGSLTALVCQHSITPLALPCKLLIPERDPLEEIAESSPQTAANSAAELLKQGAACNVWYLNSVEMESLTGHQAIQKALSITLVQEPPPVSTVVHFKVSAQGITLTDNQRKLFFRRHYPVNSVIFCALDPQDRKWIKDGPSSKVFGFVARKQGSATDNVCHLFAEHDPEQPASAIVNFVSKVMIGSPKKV
UniProt Q9Y6J9, sequence (Q9Y6J9 whole entry, looked up): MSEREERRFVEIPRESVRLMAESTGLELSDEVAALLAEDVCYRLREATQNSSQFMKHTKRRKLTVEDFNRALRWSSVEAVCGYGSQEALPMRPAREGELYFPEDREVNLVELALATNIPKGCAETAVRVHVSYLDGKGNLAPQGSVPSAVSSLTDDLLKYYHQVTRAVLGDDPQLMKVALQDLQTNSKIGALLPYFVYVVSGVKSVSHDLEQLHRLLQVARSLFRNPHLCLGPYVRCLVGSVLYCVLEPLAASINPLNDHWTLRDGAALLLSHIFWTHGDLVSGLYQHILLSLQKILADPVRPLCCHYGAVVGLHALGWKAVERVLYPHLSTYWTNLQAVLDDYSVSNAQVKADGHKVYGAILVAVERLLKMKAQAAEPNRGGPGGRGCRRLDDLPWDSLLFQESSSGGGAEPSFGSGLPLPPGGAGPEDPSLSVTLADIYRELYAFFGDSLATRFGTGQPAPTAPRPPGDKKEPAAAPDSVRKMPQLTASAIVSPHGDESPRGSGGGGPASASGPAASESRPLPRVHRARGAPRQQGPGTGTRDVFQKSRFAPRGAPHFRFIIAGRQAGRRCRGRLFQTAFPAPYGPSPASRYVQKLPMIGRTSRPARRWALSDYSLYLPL
UniProt Q8NI27, sequence (Q8NI27 whole entry, looked up): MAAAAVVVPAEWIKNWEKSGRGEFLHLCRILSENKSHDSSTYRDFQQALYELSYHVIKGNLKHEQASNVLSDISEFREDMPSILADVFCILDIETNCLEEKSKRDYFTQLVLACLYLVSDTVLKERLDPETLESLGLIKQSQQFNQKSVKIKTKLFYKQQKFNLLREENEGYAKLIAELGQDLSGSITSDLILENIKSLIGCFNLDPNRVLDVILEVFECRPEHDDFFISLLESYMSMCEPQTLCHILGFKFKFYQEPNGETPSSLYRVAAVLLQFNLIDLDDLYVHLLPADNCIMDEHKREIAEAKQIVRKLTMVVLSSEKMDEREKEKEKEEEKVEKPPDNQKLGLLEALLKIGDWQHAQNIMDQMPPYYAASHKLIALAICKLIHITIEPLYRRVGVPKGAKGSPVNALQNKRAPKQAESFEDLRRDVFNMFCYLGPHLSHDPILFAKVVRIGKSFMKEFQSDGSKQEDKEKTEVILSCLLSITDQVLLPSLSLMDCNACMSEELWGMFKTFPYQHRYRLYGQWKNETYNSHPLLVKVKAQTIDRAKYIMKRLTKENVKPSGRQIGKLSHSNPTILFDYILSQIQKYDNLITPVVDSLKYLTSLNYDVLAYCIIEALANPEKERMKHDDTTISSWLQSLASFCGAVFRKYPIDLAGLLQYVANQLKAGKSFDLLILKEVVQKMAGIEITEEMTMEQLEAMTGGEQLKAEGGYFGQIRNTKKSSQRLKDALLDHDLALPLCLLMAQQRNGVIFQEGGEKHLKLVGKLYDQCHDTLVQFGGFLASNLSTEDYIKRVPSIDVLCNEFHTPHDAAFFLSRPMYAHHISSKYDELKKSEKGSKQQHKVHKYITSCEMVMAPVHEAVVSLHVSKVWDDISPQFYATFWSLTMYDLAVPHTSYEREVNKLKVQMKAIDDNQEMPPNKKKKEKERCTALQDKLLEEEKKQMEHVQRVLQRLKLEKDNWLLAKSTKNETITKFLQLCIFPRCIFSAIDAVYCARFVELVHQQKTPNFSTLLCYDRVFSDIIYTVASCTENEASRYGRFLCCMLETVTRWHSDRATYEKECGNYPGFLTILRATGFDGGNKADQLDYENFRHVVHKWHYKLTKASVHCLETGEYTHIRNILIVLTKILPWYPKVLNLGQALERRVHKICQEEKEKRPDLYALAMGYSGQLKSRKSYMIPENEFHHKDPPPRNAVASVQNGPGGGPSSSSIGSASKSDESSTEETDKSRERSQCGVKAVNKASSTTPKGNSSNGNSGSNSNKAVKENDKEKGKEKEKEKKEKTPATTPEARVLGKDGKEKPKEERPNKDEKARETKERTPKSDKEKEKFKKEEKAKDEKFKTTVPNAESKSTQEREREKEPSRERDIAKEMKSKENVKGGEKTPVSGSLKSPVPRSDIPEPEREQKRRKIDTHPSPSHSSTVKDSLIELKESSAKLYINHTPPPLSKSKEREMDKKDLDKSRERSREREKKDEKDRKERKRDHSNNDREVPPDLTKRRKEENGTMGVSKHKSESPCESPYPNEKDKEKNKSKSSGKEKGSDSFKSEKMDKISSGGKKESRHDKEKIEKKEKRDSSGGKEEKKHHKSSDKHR
UniProt O60220, sequence (O60220 whole entry): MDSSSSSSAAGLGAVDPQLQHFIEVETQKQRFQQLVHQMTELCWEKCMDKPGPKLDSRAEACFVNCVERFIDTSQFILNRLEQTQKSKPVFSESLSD
UniProt A5PLN9, sequence (A5PLN9 whole entry, looked up): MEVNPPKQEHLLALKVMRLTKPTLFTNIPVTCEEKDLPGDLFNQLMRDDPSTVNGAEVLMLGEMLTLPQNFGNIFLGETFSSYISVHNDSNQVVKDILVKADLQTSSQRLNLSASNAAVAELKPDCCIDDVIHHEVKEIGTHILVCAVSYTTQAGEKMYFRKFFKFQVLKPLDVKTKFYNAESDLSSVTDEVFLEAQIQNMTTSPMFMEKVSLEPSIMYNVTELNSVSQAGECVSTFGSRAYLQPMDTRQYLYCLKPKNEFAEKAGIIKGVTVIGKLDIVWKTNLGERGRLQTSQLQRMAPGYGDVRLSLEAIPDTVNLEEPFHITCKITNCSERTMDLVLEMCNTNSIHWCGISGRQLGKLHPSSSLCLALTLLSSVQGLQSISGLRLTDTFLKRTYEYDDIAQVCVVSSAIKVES

Target	probe-labelled cysteine peptide fold change (10 µM)	probe-labelled cysteine peptide fold change (50 µM)
TNPO3_Q9Y5L0_793_DANCSVMR (UniProt Q9Y5L0)	0.0522	-0.00663
SVIL_O95425_1966_VTIHECDEGSEPLGFWDALGR (UniProt O95425)	-0.0958	-0.407
TARDBP_Q13148_50_YRNPVSQCMR (UniProt Q13148)	-0.0119	-0.0116
TPP2_P29144_28_KETGAASFLCR (UniProt P29144)	-0.0524	-0.018
TAGLN2_P37802_38_QYDADLEQILIQWITTQCRK (UniProt P37802)	-1.01	-0.918
TOMM34_Q15785_74_DCTSALALVPFSIKPLLR (UniProt Q15785)	-0.141	-0.141
TPI1_P60174_124_DCGATWVVLGHSERR (UniProt P60174)	-0.61	-0.325
TRIM28_Q13263_221+224_HEPLVLFCESCDTLTCR (UniProt Q13263)	-0.0953	-0.162
TONSL_Q96HA7_1248_EGCALAHLTLSANHLGDK (UniProt Q96HA7)	0.0454	-0.0809
SURF2_Q15527_116_YEECQK (UniProt Q15527)	-0.0453	-0.0823
TELO2_Q9Y4R8_367_AVLICLAQLGEPELR (UniProt Q9Y4R8)	0.000677	-0.124
TRAFD1_O14545_119_TELCGNCGR (UniProt O14545)	0.47	0.589
SUPT6H_Q7KZ85_1435_YYQDCSGGDRK (UniProt Q7KZ85)	-0.0915	-0.00252
STARD3_Q14849_291_TFLPCPAELVYQEVILQPER (UniProt Q14849)	0.749	-0.0598
TFB1M_Q8WVM0_160_WLENISCR (UniProt Q8WVM0)	0.114	0.159
TKT_P29401_41+42_ISSIQATTAAGSGHPTSCCSAAEIMAVLFFHTMR (UniProt P29401)	0.0318	-0.488
TRIR_Q9BQ61_165_AHQCGDDDK (UniProt Q9BQ61)	-0.469	-0.63
THOC2_Q8NI27_28_GEFLHLCR (UniProt Q8NI27)	-0.0107	-0.00493
SRPK1_Q96SB4_647_ATAAECLR (UniProt Q96SB4)	-0.12	-0.0939

Target	probe-labelled cysteine peptide fold change (10 µM)	probe-labelled cysteine peptide fold change (50 µM)
THAP12_O43422_644_SDLPNPDTLSAELHCWR (UniProt O43422)	0.204	0.0702
STIL_Q15468_126_EVPECLEITPTASLPGDFLIPCK (UniProt Q15468)	0.41	0.231
TBC1D9B_Q66K14_839_HLASQYWGCSR (UniProt Q66K14)	0.0803	-0.0404
TBC1D8B_Q0IIM8_305_EVHECFLWVPFSHFNTHGK (UniProt Q0IIM8)	-0.0455	0.00922
TNS3_Q68CZ2_512_DRETDILDDEMPHHDLHSVDSLGTLSSSEGPQSAHLGPFTCHK (UniProt Q68CZ2)	-0.357	-0.731
TAF6_P49848_130_VPLDVCLK (UniProt P49848)	-0.0649	-0.172
TOE1_Q96GM8_80_SLLNQCIEER (UniProt Q96GM8)	-0.275	-1.19
SUPT6H_Q7KZ85_960_EELLNALYCEFINR (UniProt Q7KZ85)	0.253	0.263
TRIM25_Q14258_168+174_EFFCPEHSECICHICLVEHK (UniProt Q14258)	0.191	0.102
TRIM33_Q9UPN9_754_GSCGSSGR (UniProt Q9UPN9)	0.266	0.595
THBS1_P07996_406_SCDSLNNR (UniProt P07996)	0.599	0.541
TCERG1_O14776_1062_RYLVLDCVPEER (UniProt O14776)	-0.0226	0.0368
TBC1D9B_Q66K14_76_ILHQTQDSQVYWTVACGSSR (UniProt Q66K14)	0.00641	-0.0542
TRIM13_O60858_129_HVFCSIEDAYAQER (UniProt O60858)	0.57	-0.0504
TCIRG1_Q13488_58_CEELEK<|>HOOK3_Q86VS8_272_CEELEK (UniProt Q86VS8+Q13488)	-0.105	-0.049
TIMM8A_O60220_62_AEACFVNCVER (UniProt O60220)	-0.073	0.0883
TRAPPC13_A5PLN9_327_LSLEAIPDTVNLEEPFHITCK (UniProt A5PLN9)	0.0597	-0.216
STK10_O94804_138_GLTEPQIQVVCR (UniProt O94804)	0.0814	0.136
TAF6L_Q9Y6J9_81_WSSVEAVCGYGSQEALPMRPAR (UniProt Q9Y6J9)	-0.207	-0.0714
